Source: the supplement of paper PMC4604168 (melanoma cell lines)
Some of the results follow. Single values are uncertain, as repeats are few or missing.

Experiments:
Test in all cases: cell count relative to DMSO control; melanoma cells; higher = more viable cells
Details in all cases: library dose: low library concentration; 72 h
MZ2-MEL = test system: MZ2-MEL
MeWo = test system: MeWo
RPMI7951 = test system: RPMI7951
RVH-421 = test system: RVH-421
SkMel28 = test system: SkMel28
SkMel2 = test system: SkMel2
SkMel30 = test system: SkMel30
SkMel5 = test system: SkMel5
UACC257 = test system: UACC257
UACC62 = test system: UACC62
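Note: cell number obtained by counting DAPI-stained nuclei in high-throughput microscope images with image analysis software, screen run in 1,536-well plates.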

SMILES	cell count (MZ2-MEL) [%]	cell count (MeWo) [%]	cell count (RPMI7951) [%]	cell count (RVH-421) [%]	cell count (SkMel28) [%]	cell count (SkMel2) [%]	cell count (SkMel30) [%]	cell count (SkMel5) [%]	cell count (UACC257) [%]	cell count (UACC62) [%]
C[C@]1(c2nc3c(C(N)=O)cccc3[nH]2)CCCN1 [Veliparib] + NCC(=O)Nc1ccc(-n2nc(C(F)(F)F)cc2-c2ccc3c(ccc4ccccc43)c2)cc1 [OSU03012] (first compound 1.4 µM, partner dose 1 µM)	91.7	57.5	128	95.7	70.3	77.3	47.5	105	108	84.8
C[C@]1(c2nc3c(C(N)=O)cccc3[nH]2)CCCN1 [Veliparib] + Cc1ccc(NC(=O)c2cccc(N(C)C)c2)cc1NC(=O)c1ccc(O)cc1 [ZM336372] (first compound 1.4 µM, partner dose 2 µM)	78.1	94.2	76.6	86.7	93.2	99.3	93.2	96.2	78.9	85.9
CN(C)S(=O)(=O)c1ccc2c(c1)/C(=C/c1cc3c([nH]1)CCCC3)C(=O)N2 + COc1cc2c(Oc3ccc4[nH]c(C)cc4c3F)ncnc2cc1OCCCN1CCCC1 [cediranib] (first compound 0.4 µM, partner dose 0.4 µM)	106	106	103	92.5	94	95.7	96.5	101	107	100
C[C@]1(c2nc3c(C(N)=O)cccc3[nH]2)CCCN1 [Veliparib] + NC(=O)Nc1cc(-c2cccc(F)c2)sc1C(=O)N[C@H]1CCCNC1 [AZD7762] (first compound 1.4 µM, partner dose 0.02 µM)	114	87.8	97	130	112	103	83	110	150	87.3
CO[C@@H]1[C@H](N(C)C(=O)c2ccccc2)C[C@H]2O[C@]1(C)n1c3ccccc3c3c4c(c5c6ccccc6n2c5c31)C(=O)NC4 [Midostaurin] + Cn1cncc1[C@@](N)(c1ccc(Cl)cc1)c1ccc2c(c1)c(-c1cccc(Cl)c1)cc(=O)n2C [tipifarnib] (first compound 0.08 µM, partner dose 0.01 µM)	80.4	79.5	54	97.9	70.8	67.5	85.9	91.4	60.2	65.4
C[C@]1(c2nc3c(C(N)=O)cccc3[nH]2)CCCN1 [Veliparib] + CC(C)(C)c1cnc(CSc2cnc(NC(=O)C3CCNCC3)s2)o1 [SNS-032] (first compound 1.4 µM, partner dose 0.01 µM)	93.6	95.5	101	77.1	79.5	93.5	84.3	95.5	71.4	75.3
C[C@]1(c2nc3c(C(N)=O)cccc3[nH]2)CCCN1 [Veliparib] + O=C(CCCCCCC(=O)Nc1ccccc1)NO [vorinostat] (first compound 1.4 µM, partner dose 0.08 µM)	97.8	99.4	105	75.5	91.3	91.8	94.8	81.7	86.8	78.3
Cc1nc(Nc2ncc(C(=O)Nc3c(C)cccc3Cl)s2)cc(N2CCN(CCO)CC2)n1 [dasatanib] + OCCn1cc(-c2cnc3nnn(Cc4ccc5ncccc5c4)c3n2)cn1 [PF04217903] (first compound 0.004 µM, partner dose 1 µM)	88.4	86.4	89.3	82.9	68.3	104	110	96.5	75.3	90.5
CO[C@@H]1[C@H](N(C)C(=O)c2ccccc2)C[C@H]2O[C@]1(C)n1c3ccccc3c3c4c(c5c6ccccc6n2c5c31)C(=O)NC4 [Midostaurin] + NCC(=O)Nc1ccc(-n2nc(C(F)(F)F)cc2-c2ccc3c(ccc4ccccc43)c2)cc1 [OSU03012] (first compound 0.08 µM, partner dose 1 µM)	92.5	50.3	63.8	106	83.3	78	53.9	73.5	67.6	88.1
NCC(=O)Nc1ccc(-n2nc(C(F)(F)F)cc2-c2ccc3c(ccc4ccccc43)c2)cc1 + CN(NC(=O)CC(=O)NN(C)C(=S)c1ccccc1)C(=S)c1ccccc1 [STA4783] (first compound 1 µM, partner dose 0.006 µM)	92.7	56.3	95.3	87.3	101	80.4	50.9	108	110	76.7
Cc1nc(Nc2ncc(C(=O)Nc3c(C)cccc3Cl)s2)cc(N2CCN(CCO)CC2)n1 [dasatanib] + O=C(Nc1cccc(Cl)c1)Nc1ncc(CCNc2ncnc3ccsc23)s1 [SNS314] (first compound 0.004 µM, partner dose 0.0008 µM)	79	93.3	82.1	86.9	76.7	88.5	101	86.2	72.4	81.1
Cc1nc(Nc2ncc(C(=O)Nc3c(C)cccc3Cl)s2)cc(N2CCN(CCO)CC2)n1 [dasatanib] + Cc1cc(N2CCOCC2)cc2[nH]c(-c3c(NC[C@@H](O)c4cccc(Cl)c4)cc[nH]c3=O)nc12 [BMS536924] (first compound 0.004 µM, partner dose 0.2 µM)	78	81.7	73.6	101	71.6	94.3	84.1	84.6	64.5	81.2
C=CCn1c(=O)c2cnc(Nc3ccc(N4CCN(C)CC4)cc3)nc2n1-c1cccc(C(C)(C)O)n1 + Cc1cc(N2CCOCC2)cc2[nH]c(-c3c(NC[C@@H](O)c4cccc(Cl)c4)cc[nH]c3=O)nc12 [BMS536924] (first compound 0.02 µM, partner dose 0.2 µM)	95.9	96.9	94.9	81.1	82.4	76.9	83	81.5	79.7	68.8
CN(C)S(=O)(=O)c1ccc2c(c1)/C(=C/c1cc3c([nH]1)CCCC3)C(=O)N2 + O=C(O)c1ccc(-c2c[nH]c3ncc(-c4ccccc4)cc23)cc1C1CCCC1 [GSK650394] (first compound 0.4 µM, partner dose 0.16 µM)	96.6	85.7	96.4	96.7	74.5	96	95.1	96.7	75.6	104
C[C@]1(c2nc3c(C(N)=O)cccc3[nH]2)CCCN1 [Veliparib] + COc1cc(Nc2ncc(F)c(Nc3ccc4c(n3)NC(=O)C(C)(C)O4)n2)cc(OC)c1OC [Tamatinib] (first compound 1.4 µM, partner dose 0.4 µM)	89	89.2	86.2	91.8	73.7	91.6	72.5	85.3	75.2	75
OCCn1cc(-c2cnc3nnn(Cc4ccc5ncccc5c4)c3n2)cn1 + Cn1cncc1[C@@](N)(c1ccc(Cl)cc1)c1ccc2c(c1)c(-c1cccc(Cl)c1)cc(=O)n2C [tipifarnib] (first compound 1 µM, partner dose 0.01 µM)	99.4	99.7	99.4	103	108	83.4	118	110	92.3	83.3
CO[C@@H]1[C@H](N(C)C(=O)c2ccccc2)C[C@H]2O[C@]1(C)n1c3ccccc3c3c4c(c5c6ccccc6n2c5c31)C(=O)NC4 [Midostaurin] + CC(C)(C)c1cnc(CSc2cnc(NC(=O)C3CCNCC3)s2)o1 [SNS-032] (first compound 0.08 µM, partner dose 0.01 µM)	95.8	85.9	77.7	108	89	91.4	92	90	72.3	55.7
C=CCn1c(=O)c2cnc(Nc3ccc(N4CCN(C)CC4)cc3)nc2n1-c1cccc(C(C)(C)O)n1 + CN(C)S(=O)(=O)c1ccc2c(c1)/C(=C/c1cc3c([nH]1)CCCC3)C(=O)N2 [SU6656] (first compound 0.02 µM, partner dose 0.4 µM)	101	102	104	79.2	92.5	101	103	86.7	99.2	93.2
OCCn1cc(-c2cnc3nnn(Cc4ccc5ncccc5c4)c3n2)cn1 + CN(C)S(=O)(=O)c1ccc2c(c1)/C(=C/c1cc3c([nH]1)CCCC3)C(=O)N2 [SU6656] (first compound 1 µM, partner dose 0.4 µM)	106	93.5	111	89.1	94	93.8	87.3	94.7	98.8	103
Cc1nc(Nc2ncc(C(=O)Nc3c(C)cccc3Cl)s2)cc(N2CCN(CCO)CC2)n1 [dasatanib] + CN(NC(=O)CC(=O)NN(C)C(=S)c1ccccc1)C(=S)c1ccccc1 [STA4783] (first compound 0.004 µM, partner dose 0.006 µM)	75.7	90.9	77.1	76.1	74	95	71.5	93.1	73.2	79.1
OCCn1cc(-c2cnc3nnn(Cc4ccc5ncccc5c4)c3n2)cn1 + O=C(Nc1cccc(Cl)c1)Nc1ncc(CCNc2ncnc3ccsc23)s1 [SNS314] (first compound 1 µM, partner dose 0.0008 µM)	101	94.1	97.9	93.2	87.3	99	106	104	94.4	116
NC(=O)Nc1cc(-c2cccc(F)c2)sc1C(=O)N[C@H]1CCCNC1 + Cc1cc(N2CCOCC2)cc2[nH]c(-c3c(NC[C@@H](O)c4cccc(Cl)c4)cc[nH]c3=O)nc12 [BMS536924] (first compound 0.02 µM, partner dose 0.2 µM)	102	95.9	97.2	114	96.9	95.1	101	84.2	89.7	78.4
